The campaign covered roughly 310,000 compounds. About 11,000 (3.5%) were called active. The shares of active, inactive and inconclusive entries below differ from those in the screen. Calls follow the shape of the dose curve; as a rule, active = well fitted inhibition curve with a large enough effect; inconclusive = small, poorly fitted or top-dose-only effect, or effect the other way; inactive = flat fitted curve, though single readings scatter. No potency is given beside an inconclusive call; the fits are too rough.
Test: VP16 counterscreen qHTS for inhibitors of ROR gamma transcriptional activity;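 also: Gal4-VP16 expression switched on by copper sulfate through the metallothionein promoter; nearly all actives have a fitted effect of over 50% in size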
Conditions: Drosophila S2 Gal4-VP16 UAS-luciferase, luminescence, 20 h; activity, negative = inhibition: at 53.6 µM (top of the series)
% is scaled to controls: 0 for no effect and ±100 for the full control effect; potency is read from the fitted curve at half-maximal effect; tags tell the direction and shape of the fitted curve.

SMILES | Potency | activity, negative = inhibition
COc1ccc(-n2nc(C(=O)NCC(=O)Nc3ccccn3)c3ccccc3c2=O)cc1Cl | inconclusive [inhibitor, single point] | 
O=C(Nc1ccc(-c2cn3ccsc3n2)cc1)C1CC1 | inconclusive [inhibitor, single point] | 
O=C(Nc1nnc(-c2ccccc2)o1)c1cc(-c2cccs2)nc2ccccc12 | active: 1 µM | 
CCCCn1c(SCC(=O)NCC2CCCO2)nc2ccc(N3CCOCC3)cc2c1=O (centres undefined) | active: 11.2 µM | 
CC(=O)N1NC(=Nc2ccccc2)SC1(C)C | inconclusive [inhibitor, single point] | 
CC(C)Cc1cc(C(=O)N2CCCC(CO)(Cc3ccc(F)cc3F)C2)n[nH]1 (centres undefined) | inconclusive [inhibitor, single point] | 
COC(=O)c1nc2ccc(N3CCOCC3)cc2c(C)c1C(=O)OC | inconclusive [inhibitor, single point] | 
CC(=O)NNc1nc(-c2ccc(NC(C)=O)cc2)cs1 | inconclusive [inhibitor, partial curve, poor fit] | 
CC1=C(C(=O)Nc2ccccc2C)C2(CCCCC2)C(C(N)=O)C(=S)N1 (centres undefined) | inconclusive [activator, single point] | 
CCc1c(C)nc2ncnn2c1N1CCC(C(=O)N2CCN(c3ccccc3)CC2)CC1 |  | inactive: -11%
Nc1nc(CSc2nc3ccccc3s2)nc(Nc2ccccc2)n1 | inconclusive [inhibitor, partial curve, poor fit] | 
Cc1noc(C)c1COC(=O)c1ccc(-c2nc3ccccc3s2)s1 | inconclusive [inhibitor, full curve] | 
CN(Cc1nc(-c2cccnc2)no1)S(=O)(=O)c1ccc(Br)cc1 | active: 11.2 µM | 
C/C(=N\NC(=O)c1ccccc1)c1ccc2c(c1)OCO2 | inconclusive [inhibitor, single point] | 
FC(F)(F)c1ccc(/C=N/n2c(C3CCCCC3)n[nH]c2=S)cc1 | active: 10 µM | 
CC1(C)SC(=S)N(NC(=O)Nc2ccccc2)C1N(O)C(=O)Nc1cccc2ccccc12 (centres undefined) | inconclusive [activator, single point] | 
CC1(C(=O)Nc2ccc3ccccc3c2)CC1(Br)Br (centres undefined) | inconclusive [inhibitor, single point] | 
Cc1cccc(C(=O)Nc2ccc(C(=O)/C=C/c3cccnc3)cc2)c1 | inconclusive [inhibitor, single point] | 
COc1ccc(C(=O)Nc2ccccc2N2CCOCC2)cc1[N+](=O)[O-] |  | inactive: -2.94%
